Results published in the supplement of paper PMC11741623.
The other results are listed elsewhere or left out. Interaction screen of human proteins with wild-type SARS-CoV-2 proteins by split-DHFR complementation in yeast, 1 µg/mL methotrexate. Value = fitness of the pair (three or more lineages) minus that of the viral protein without a human partner, on a scale set by negative (0) and fused positive (1) controls, mean of up to three cultures; higher = more likely to interact. Active = false discovery rate below 0.05 (one-sided t-test) in at least one culture. Nearly all pairs are not hits, and differences among them are mostly noise (correlation between cultures about 0.3); most hits were seen in one culture only. Human sequences are the Swiss-Prot entries looked up by gene name; the clone may be another isoform. NSP2 values were corrected by the authors for a growth advantage. Listed are human proteins with a hit and a random twelfth of the others.

How the values were obtained:
Assay in all cases: yeast fitness gain over the viral ORF with no human partner (scaled fitness); higher = more likely to interact
SARS-CoV-2 NSP10 = target: SARS-CoV-2 NSP10
Method: (§1)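 Split mouse DHFR complementation in pooled diploid yeast: human ORFeome clones carry one fragment and viral ORFs the other; barcoded lineages compete in 1 µg/mL methotrexate and fitness is read by barcode sequencing in up to three cultures.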

SARS-CoV-2 NSP12 = target: SARS-CoV-2 NSP12
Method: as §1

SARS-CoV-2 NSP13 = target: SARS-CoV-2 NSP13
Method: as §1

SARS-CoV-2 NSP2 = target: SARS-CoV-2 NSP2
Method: as §1

SARS-CoV-2 NSP5 = target: SARS-CoV-2 NSP5
Method: as §1

SARS-CoV-2 NSP6 = target: SARS-CoV-2 NSP6
Method: as §1

SARS-CoV-2 NSP7 = target: SARS-CoV-2 NSP7
Method: as §1

SARS-CoV-2 ORF3B = target: SARS-CoV-2 ORF3B
Method: as §1

SARS-CoV-2 ORF6 = target: SARS-CoV-2 ORF6
Method: as §1

SARS-CoV-2 ORF7A = target: SARS-CoV-2 ORF7A
Method: as §1

SARS-CoV-2 ORF7B = target: SARS-CoV-2 ORF7B
Method: as §1

SARS-CoV-2 ORF8 = target: SARS-CoV-2 ORF8
Method: as §1

SARS-CoV-2 ORF9B = target: SARS-CoV-2 ORF9B
Method: as §1

SARS-CoV-2 S = target: SARS-CoV-2 S
Method: as §1

SARS-CoV-2 NSP15 = target: SARS-CoV-2 NSP15
Method: as §1

SARS-CoV-2 NSP8 = target: SARS-CoV-2 NSP8
Method: as §1

SARS-CoV-2 ORF10 = target: SARS-CoV-2 ORF10
Method: as §1

[1] = target: SARS-CoV-2 ORF9Bwu (the 73-codon ORF)
Method: as §1

Measured: yeast fitness gain

B1: NYX, Q9GZU5 (protein)
chain: MLVLLLHAVVLGLPSAWAVGACARACPAACACSTVERGCSVRCDRAGLLRVPAELPCEAVSIDLDRNGLRFLGERAFGTLPSLRRLSLRHNNLSFITPGAFKGLPRLAELRLAHNGDLRYLHARTFAALSRLRRLDLAACRLFSVPERLLAELPALRELAAFDNLFRRVPGALRGLANLTHAHLERGRIEAVASSSLQGLRRLRSLSLQANRVRAVHAGAFGDCGVLEHLLLNDNLLAELPADAFRGLRRLRTLNLGGNALDRVARAWFADLAELELLYLDRNSIAFVEEGAFQNLSGLLALHLNGNRLTVLAWVAFQPGFFLGRLFLFRNPWCCDCRLEWLRDWMEGSGRVTDVPCASPGSVAGLDLSQVTFGRSSDGLCVDPEELNLTTSSPGPSPEPAATTVSRFSSLLSKLLAPRVPVEEAANTTGGLANASLSDSLSSRGVGGAGRQPWFLLASCLLPSVAQHVVFGLQMD
inactive: SARS-CoV-2 NSP10 = -0.0146 | SARS-CoV-2 NSP12 = -0.031 | SARS-CoV-2 NSP13 = 0.0752 | SARS-CoV-2 NSP2 = -0.262 | SARS-CoV-2 NSP5 = -0.066 | SARS-CoV-2 NSP6 = 0.0347 | SARS-CoV-2 NSP7 = -0.189 | SARS-CoV-2 ORF3B -0.0415 | SARS-CoV-2 ORF6 = -0.0358 | SARS-CoV-2 ORF7A 0.027 | SARS-CoV-2 ORF7B -0.00517 | SARS-CoV-2 ORF8 = -0.0782 | SARS-CoV-2 ORF9B 0.00656 | SARS-CoV-2 S 0.0392

B2: MFSD5, Q6N075 (protein)
chain: MLVTAYLAFVGLLASCLGLELSRCRAKPPGRACSNPSFLRFQLDFYQVYFLALAADWLQAPYLYKLYQHYYFLEGQIAILYVCGLASTVLFGLVASSLVDWLGRKNSCVLFSLTYSLCCLTKLSQDYFVLLVGRALGGLSTALLFSAFEAWYIHEHVERHDFPAEWIPATFARAAFWNHVLAVVAGVAAEAVASWIGLGPVAPFVAAIPLLALAGALALRNWGENYDRQRAFSRTCAGGLRCLLSDRRVLLLGTIQALFESVIFIFVFLWTPVLDPHGAPLGIIFSSFMAASLLGSSLYRIATSKRYHLQPMHLLSLAVLIVVFSLFMLTFSTSPGQESPVESFIAFLLIELACGLYFPSMSFLRRKVIPETEQAGVLNWFRVPLHSLACLGLLVLHDSDRKTGTRNMFSICSAVMVMALLAVVGLFTVVRHDAELRVPSPTEEPYAPEL
inactive: SARS-CoV-2 NSP10 = 0.0341 | SARS-CoV-2 NSP12 = 0.0369 | SARS-CoV-2 NSP13 = -0.035 | SARS-CoV-2 NSP15 = 0.117 | SARS-CoV-2 NSP2 = -0.128 | SARS-CoV-2 NSP5 = -0.0621 | SARS-CoV-2 NSP7 = -0.0147 | SARS-CoV-2 NSP8 = -0.034 | SARS-CoV-2 ORF10 = -0.0114 | SARS-CoV-2 ORF3B 0.0703 | SARS-CoV-2 ORF7B 0.116 | SARS-CoV-2 ORF8 = 0.12 | SARS-CoV-2 ORF9B -0.085 | SARS-CoV-2 S -0.0619

B3: TCEB3B, Q8IYF1 (protein)
chain: MAAGSTTLHAVEKLQVRLATKTEPKKLEKYLQKLSALPMTADILAETGIRKTVKRLRKHQHVGDFARDLAARWKKLVLVDRNTRPGPQDPEESASRQRFGEALQDQEKAWGFPENATAPRSPSHSPEHRRTARRTPPGQQRPHPRSHSREPRAERKCPRIAPADSGRYRASPTRTAPLRMPEGPEPAAPGKQPGRGHTHAAQGGPLLCPGCQGQPQGKAVVSHSKGHKSSRQEKRPLCAQGDWHSPTLIREKSCGACLREETPRMPSWASARDRQPSDFKTDKEGGQAGSGQRVPALEEAPDSHQKRPQHSHSNKKRPSLDGRDPGNGTHGLSPEEKEQLSNDRETQEGKPPTAHLDRTSVSSLSEVEEVDMAEEFEQPTLSCEKYLTYDQLRKQKKKTGKSATTALGDKQRKANESKGTRESWDSAKKLPPVQESQSERLQAAGADSAGPKTVPSHVFSELWDLSEAWMQANYDPLSDSDSMTSQAKPEALSSPKFREEAAFPGRRVNAKMPVYSGSRPACQLQVPTLRQQCAQVLRNNPDALSDVGEVPYWVLEPVLEGWRPDQLYRRKKDNHALVRETDELRRNHCFQDFKEEKPQENKTWREQYLRLPDAPEQRLRVMTTNIRSARGNNPNGREAKMICFKSVAKTPYDTSRRQEKSAGDADPENGEIKPASKPAGSSHTPSSQSSSGGGRDSSSSILRWLPEKRANPCLSSSNEHAAPAAKTRKQAAKKVAPLMAKAIRDYKRRFSRR
inactive: SARS-CoV-2 NSP10 = -0.0454 | SARS-CoV-2 NSP12 = -0.217 | SARS-CoV-2 NSP13 = -0.225 | SARS-CoV-2 NSP2 = -0.281 | SARS-CoV-2 ORF3B -0.325 | SARS-CoV-2 ORF6 = -0.125 | SARS-CoV-2 ORF7A 0.129 | SARS-CoV-2 ORF7B -0.14 | SARS-CoV-2 ORF8 = 0.0266 | SARS-CoV-2 ORF9B -0.172 | [1] -0.145 | SARS-CoV-2 S -0.226
